# Assay results as given in PubChem BioAssay AID1030 (National Center for Advancing Translational Sciences (NCATS), 2008).
# Out of some 220,000 compounds screened, about 16,000 (7.3%) were called active. Inconclusive means that the source gave no clear call. Such entries were picked first, then a sample of the others. The call rests on the fitted dose curve; in most records, active means well fitted inhibition curve with a large enough effect (not every such curve was filed as active); inconclusive means small, poorly fitted or top-dose-only effect, or another doubt; inactive means no such curve, though single readings can be large or run the other way. No potency is given beside an inconclusive call; the fits are too rough.
# Molecular target: Aldehyde dehydrogenase 1A1 (Homo sapiens) (UniProt P00352)
# Assay: qHTS Assay for Inhibitors of Aldehyde Dehydrogenase 1 (ALDH1A1);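 on activity, negative = inhibition: plate controls were no enzyme wells and a reference inhibitor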
# Conditions: Purified ALDH1A1, NADH fluorescence, propionaldehyde substrate; series mostly up to 75.3 µM
# Potency means the concentration at half of the fitted maximal effect; tags describe the fitted curve by direction and shape.
# Chain of UniProt P00352 (P00352 whole entry, looked up): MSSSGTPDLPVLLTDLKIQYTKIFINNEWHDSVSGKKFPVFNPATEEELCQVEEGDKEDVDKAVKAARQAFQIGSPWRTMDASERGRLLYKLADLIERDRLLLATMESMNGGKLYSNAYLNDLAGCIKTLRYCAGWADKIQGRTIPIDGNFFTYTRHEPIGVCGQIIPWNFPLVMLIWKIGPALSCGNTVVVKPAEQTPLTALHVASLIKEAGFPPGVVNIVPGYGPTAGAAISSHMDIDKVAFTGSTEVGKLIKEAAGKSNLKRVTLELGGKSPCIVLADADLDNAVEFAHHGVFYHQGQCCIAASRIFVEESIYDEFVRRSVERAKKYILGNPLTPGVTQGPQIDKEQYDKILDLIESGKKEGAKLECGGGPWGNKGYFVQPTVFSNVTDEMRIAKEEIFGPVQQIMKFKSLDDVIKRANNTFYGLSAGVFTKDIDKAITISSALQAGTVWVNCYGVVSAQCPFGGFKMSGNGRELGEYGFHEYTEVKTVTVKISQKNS
SMILES,Potency,"activity, negative = inhibition"
COc1ccc(/C=N/c2oc(-c3ccccc3)cc2C#N)cc1,"inconclusive [inhibitor, partial curve]",–
CCOc1ccc(CNC(=S)N/N=C/c2cccnc2)cc1,inactive,–
O=C(NCc1ccccc1)c1ccc2c(c1)C(=O)N(Cc1ccncc1)C2=O,"inconclusive [inhibitor, single point]",–
CCCCN1C(=O)/C(=C2/Sc3ccccc3N2C)S/C1=N\c1ncn[nH]1,inactive,–
COc1nc(-c2ccc(C)cc2)ccc1-c1noc(-c2cccnc2)n1,"inconclusive [inhibitor, full curve]",–
COc1ccc(-c2cc(C(=O)NCCCn3ccnc3)no2)cc1,inactive,–
CN(C)c1ncc2ncc(=O)n(C[C@H]3CCCO3)c2n1,"inconclusive [inhibitor, single point]",–
COc1cc(CNC2CCCC2)cc(Cl)c1OCc1ccccc1F,inactive,–
COc1cc(NC(=O)Cn2ncc(Cl)c(Cl)c2=O)c(C)cc1[N+](=O)[O-],active: 2 µM,–
Cc1ccc2nc(N3CCN(c4ccccc4F)CC3)c(C=O)c(=O)n2c1,"inconclusive [inhibitor, single point]",–
CCCCOc1ccccc1NC(=O)CC1Nc2ccccc2NC1=O (configuration not stated),active: 14.1 µM,–
COc1ccc2c(c1)sc(=N)n2C,active: 20 µM,–
Cc1ccc(NC(=O)c2cc(N3C(=O)C4CC=CCC4C3=O)ccc2N2CCOCC2)cc1Cl (configuration not stated),active: 28.2 µM,–
CCC(=O)NCc1cc(-c2nn(C)c(=O)c3ccccc23)ccc1C,inactive,–
COc1cc(OC)c(OC)cc1/C=N/NC(=O)CC1C(=O)NN=C1C (configuration not stated),"inconclusive [inhibitor, partial curve]",–
Nc1cc(=O)[nH]c(=S)n1-c1ccccc1,inactive,–
CCn1c(SCC(=O)N/N=C(\C)c2ccco2)nnc1-c1ccccc1,active: 11.2 µM,–
N#CCN1CCC/C1=C\[N+](=O)[O-],"inconclusive [inhibitor, single point]",–
N#C/C(=C\Nc1ccc(Cl)cn1)S(=O)(=O)c1ccccn1,"inconclusive [inhibitor, single point]",–
Cc1[nH]n(-c2ccccc2)c(=O)c1N=Nc1nccs1,inactive,–
Cc1cc(=O)oc2cc(OCC(=O)N3CC(C)OC(C)C3)ccc12 (configuration not stated),"inconclusive [inhibitor, partial curve]",–
Cc1c2c(nc3ccccc13)-c1cccc(=O)n1C2,"inconclusive [inhibitor, partial curve]",–
CC(=O)[C@H]1CC[C@H]2[C@@H]3C=CC4=CC(=O)CC[C@@]4(C)[C@H]3CC[C@]12C,"inconclusive [inhibitor, single point]",–
Nc1ccccc1NC(=O)c1ccccc1N,"inconclusive [inhibitor, partial curve]",–

SMILES,Potency,"activity, negative = inhibition"
Cc1ccc(NC(=O)N(Cc2cccs2)Cc2cc3cc4c(cc3[nH]c2=O)OCO4)cc1,"inconclusive [inhibitor, single point]",–
COc1ccc(-c2nc(-n3c(C)c(C(C)=O)c(C(C)=O)c3C)sc2C)cc1,"inconclusive [inhibitor, partial curve]",–
COc1ccc(C2NC(=O)NC(C)=C2C(=O)Nc2cccc(C)c2C)cc1 (configuration not stated),active: 2.82 µM,–
Cc1ccc2[nH]c3c(c2c1)CCNC3=O,"inconclusive [inhibitor, partial curve]",–
O=C(/C=C/c1ccccc1Cl)NCc1cccs1,"inconclusive [inhibitor, single point]",–
Cc1ccc(-c2nc3cc(NC(=O)C(C)C)ccc3o2)cc1,"inconclusive [inhibitor, single point]",–
S=c1[nH]nc(COc2ccc(Cl)cc2)n1C1CCCCC1,"inconclusive [inhibitor, single point]",–
Cc1ccc(/C(N)=N/OC(=O)c2cccc(F)c2)cc1,"inconclusive [inhibitor, single point]",–
COc1ccc(C2C(C(=O)N3CCOCC3)c3ccccc3C(=O)N2c2ccc(OC)cc2)cc1 (configuration not stated),active: 14.1 µM,–
COc1ccc(NCC(=O)Nc2ccccc2C#N)cc1Cl,"inconclusive [inhibitor, single point]",–
CC(C)(C)NC(=S)NNC(=O)c1cccc(Br)c1,active: 11.2 µM,–
COC(=O)c1sc(NC(C)=O)c(C(=O)OC)c1C,"inconclusive [inhibitor, single point]",–
Cc1ccc(S(=O)(=O)N[C@H]2COC(=O)[C@H](C)COC(=O)[C@H](C)NC(=O)C/C=C\[C@H]2C)cc1,–,inactive: 3.32% [at 13.5 µM]
COc1cc(OC)cc(-c2cc3nc(C4CCN(C(=O)OC(C)(C)C)CC4)cc(=O)n3[nH]2)c1,"inconclusive [inhibitor, single point]",–
O=c1[nH]c2cc3c(cc2cc1CN(Cc1cccnc1)Cc1nnnn1Cc1ccco1)OCCO3,"inconclusive [inhibitor, partial curve]",–
COC(=O)c1sccc1-c1ccc(C(N)=O)o1,"inconclusive [inhibitor, partial curve]",–
CCOC(=O)N1CCN(C(=O)CSCc2ccccc2C)CC1,"inconclusive [inhibitor, partial curve, poor fit]",–
O=c1c(C(c2ccc(Br)cc2)c2c(O)nc3n(c2=O)CCCS3)c(O)nc2n1CCCS2,inactive,–
Cc1ccc(C(=O)N/C(=C\c2cccs2)C(=O)NCC2CCCO2)cc1C (configuration not stated),"inconclusive [inhibitor, single point]",–
COc1ccc(CC(=O)Nc2ccc3c(c2)OCO3)cc1S(=O)(=O)N1CCOCC1,inactive,–
CCCSc1cc(=O)n(-c2ccccc2)nc1C(=O)O,"inconclusive [inhibitor, partial curve]",–
O=C1NC(=S)S/C1=C\c1coc2ccc(O)cc2c1=O,"inconclusive [inhibitor, single point]",–
Cc1ccc(-c2nc3ccccc3n3nnnc23)cc1,"inconclusive [inhibitor, single point]",–
